# Assay results published in PMC12136788.
# The list shows a part of the results.
# B1: 13947493_13955163_841_3pUTR_ENSMUSG00000068036_ENSMUST00000139666|mouse|control|control (ssRNA)
# RNA: GGGAGUUCUACAGUCCGACGAUCGUUUUAAACUAUCUGCAUAUAUCCUCAGUGUUCCACCUGAGUCAGGCCGCCCAUCUGAGCUCCGAAACUCUUGCAUUCUCUUCUCCAGUUUUUGCUGCCGCCGCCGUUUCAUGACAACUUCAACAGAGGAUUGAGCAUCA
# B2: chr3:119450855:119450856:-_ENSMUSG00000028134_ENSMUST00000029780|mus_hu|mus_mus_mus_hu_False|58_98 (ssRNA)
# RNA: GGGAGUUCUACAGUCCGACGAUCUGUGGUGCCACUAAGAGGUGUAUUUGCUGUCUGGACAGCUGUCACAGCUUGAAGAACUACUUGAGCACGUUGGUUUAAUGUAUUAUCUGUCUUUAGUUCUUUGUGAUUCGAGUACUGGAUCAACAGAGGAUUGAGCAUCA
# B3: chr5:38546887:38546888:-_ENSMUSG00000029126_ENSMUST00000031009|mus_mus|motif|central (ssRNA)
# RNA: GGGAGUUCUACAGUCCGACGAUCGACCAGCACGGAGACCUUAAACCUCUCGGUGACACCCUCGGUGAUGCUGACGGUGAACUCGGCGGUCUUGGGAGGACGUGCUUUUCCUUUUUUGCGAUCAGGUUCAUAUUCAGUCUUAGUCAACAGAGGAUUGAGCAUCA
# B4: chr1:163117127:163117128:-_ENSG00000143248_ENST00000313961|hu_mus|hu_hu_hu_mus_False|1_38 (ssRNA)
# RNA: GGGAGUUCUACAGUCCGACGAUCUGCUACAAAGGAUGUAACUCAACUCACAGGGCAACUUUUGGAAGCCUGACCAGAUGACUACUUGAUUAGCUCCUGAUAAAACUCAGAGCGCACAAAGCGGGGCAGAGAAUCCUUUUCCAUCAACAGAGGAUUGAGCAUCA
# B5: chr19:16406628:16406629:+_ENSMUSG00000024639_ENSMUST00000025541|mus_mus|motif|central (ssRNA)
# RNA: GGGAGUUCUACAGUCCGACGAUCGACACUUUGUAAGUCAAAGGGGUAUUCGAUGAUCCCUGUAGUGGGGACUCGAACUCGGAGCACGUCUUGUUGUGUAGGCAGAUAGGAAGGGUCGGCUACACGGUCCAAGUCAUUCAGAUACAACAGAGGAUUGAGCAUCA
# B6: 204494676_204495559_252_CDS_ENSG00000198625_ENST00000367182|human|control|control (ssRNA)
# RNA: GGGAGUUCUACAGUCCGACGAUCUUUAACAGUGAACAUUUCACCUUGCGCACCUGCUGCAUGCAAAAUCUUCAAAAGCGGCAGUUUUGGUCGUACCUGAUUGAUUUGUCCAGGAGAGAUCCUGCAAGCACUGUCAGAUGUUGACAACAGAGGAUUGAGCAUCA
# B7: chrX:140365796:140365797:-_ENSMUSG00000031285_ENSMUST00000033642|mus_mus|mus_mus_mus_hu_False|8_48 (ssRNA)
# RNA: GGGAGUUCUACAGUCCGACGAUCCUUCUCAUUACUCAGUGCCUGCAAGGUUCUGGUUCGGUAGAAGCUACAGUGGGCGCUGUGAGUGGGACUUGGAAACCCAUUCAUCCGGGAGCCUCGCAUGUUCCUAGAUGCUUUAUCUCUCAACAGAGGAUUGAGCAUCA
# B8: chr4:88367131:88367132:-_ENSMUSG00000070923_ENSMUST00000094993|mus_mus|motif|central (ssRNA)
# RNA: GGGAGUUCUACAGUCCGACGAUCUUGGUAAUUGCUUGCUUCCAAAAGUAAAUUCACACAGGUAUUGUCUGUUCUCAUGAAAUCGGCUGUCUGCACAUAGUUGAUGAGAUCCUGUGGUGUCAUCAGUGGAAAGCGAAUAUUCUUCAACAGAGGAUUGAGCAUCA
# B9: chr5:135702403:135702404:+_ENSMUSG00000002748_ENSMUST00000002825|mus_mus|FALSE|FALSE (ssRNA)
# RNA: GGGAGUUCUACAGUCCGACGAUCGUCACACAGGAACCAUAAGUUUUGUCCUUGCUUGGGCACAGUGGUCUCCACAGCUUCUAGUGCUGGUCCAUGGUGCGCAUUCACACUUGCAUUCUUGCCUAGGUUUGCUUUCUUACUUCGCAACAGAGGAUUGAGCAUCA
# B10: 43530377_43532656_477_3pUTR_ENSG00000166913_ENST00000353703|human|control|control (ssRNA)
# RNA: GGGAGUUCUACAGUCCGACGAUCAUAAGAUAUUUGUCCAACAGCUCCAGAACAUCAUUGCAGAUGUCCUGCAGUUCUGCCUCUAUCUUCUCACGGUACUCUUUGCCCAUCUGCUGCUUCUUCUCAUUCCUCUCUGUUUUCUGCCAACAGAGGAUUGAGCAUCA
# B11: chr11:108043965:108043966:-_ENSG00000149308_ENST00000278612|hu_mus|FALSE|FALSE (ssRNA)
# RNA: GGGAGUUCUACAGUCCGACGAUCGUUAUCUUGGCAAUCUGCUUGUGGCUGUGCAGCAGCUGGCGAUACAGUGUUAGUCUCAGUUUUCCUGUUUGCAGUUUCACUAGAGUCUGCUGACUCAGAAGCCUGAGGAUUAGUUUUAACCAACAGAGGAUUGAGCAUCA
# B12: chr7:7679991:7679992:-_ENSG00000106399_ENST00000396682|hu_hu|hu_hu_hu_mus_False|18_98 (ssRNA)
# RNA: GGGAGUUCUACAGUCCGACGAUCUGGGAUGAAUCUUUUCCAGCCUCCCCACGAAGCACACGGGCCGGUCGAUAUACUGUGGUAACAUGCUGGCGUUGACGCGCGCUUUGGGGAGCUCCAUCAUGUCCUCCAUGAUUCUGCCGCCAACAGAGGAUUGAGCAUCA
# B13: chr2:127988141:127988142:+_ENSMUSG00000027381_ENSMUST00000110341|mus_mus|FALSE|FALSE (ssRNA)
# RNA: GGGAGUUCUACAGUCCGACGAUCUGUCAAAAUUCAUCAGUGCAAAACGUAAAGGAAGCCAGGGAAACUGCAAUACAAAUGCUACAUACGCUGGGUUCUGACAUUAGUGAUGGGGACUAUACAGAGAUCAGUGCUGUUCACUAACAACAGAGGAUUGAGCAUCA
# B14: chr16:18804634:18804635:-_ENSG00000170540_ENST00000304414|hu_hu|FALSE|FALSE (ssRNA)
# RNA: GGGAGUUCUACAGUCCGACGAUCGUUUUUCUUUUCUUUUUGUUUGAGAAGUUUGUUUAUCUCCCUCUUGGCCAUUCCAAUGUACUUCAAAAUGAUUCCAUGUUGGUUUAGUCCAGGAAGCAAUAGUAAGGAAGUCACUAUCAGCAACAGAGGAUUGAGCAUCA
# B15: 90083140_90083260_1931_CDS_ENSMUSG00000032363_ENSMUST00000113059|mouse|control|control (ssRNA)
# RNA: GGGAGUUCUACAGUCCGACGAUCCACCCAUUUAUGGAGCUUGCCCUUGUACAGCAUGCCAUCAAACUGGCUACACUGGGUGUGACGGAAAGAGGGACGGUCCGGCGGGCAGGCUGGCAGGUUGCAGAGCUGGGACCGCUUCCUCAACAGAGGAUUGAGCAUCA
# B16: chr4:117558906:117558907:-_ENSMUSG00000033379_ENSMUST00000036380|mus_hu|motif|central (ssRNA)
# RNA: GGGAGUUCUACAGUCCGACGAUCUGGAGGAGCCGGUAAUAUAGAUGCCCCAGGCUGCCCCAACCACAGACAGGGAGAUAGCGGGGCCAAUGCCCAGGUUGGACCACAUGAAGGGCGAAGUCUCCGUCAGGAACCUGUUGUGGACAACAGAGGAUUGAGCAUCA
# B17: chr4:87735950:87735951:+_ENSG00000163629_ENST00000511467|hu_mus|motif|central (ssRNA)
# RNA: GGGAGUUCUACAGUCCGACGAUCUAGACUCAGUGUGUCUUUGUAACAACGUCCACUAUGAUCAAAUGCUGUCUCCAGCCCGGAGACCUGCUGGUUCAGUUAGUGAAAAAGGAGUUUUAAUGACCAUCAGUGGUUGAAGUGGCUCAACAGAGGAUUGAGCAUCA
# B18: chr10:73857132:73857133:-_ENSG00000138303_ENST00000317168|hu_mus|FALSE|FALSE (ssRNA)
# RNA: GGGAGUUCUACAGUCCGACGAUCUGCUGCUCUCCCGCGUCAGGAGAAGUCAACAUGUCCGCAGGAGGCAUAGUUUCCAAAGCUGUCCACCGUGAACCUCUGGGAGAUGUGAAUAGAAUUGAGCCUCAGGGAACCAAAGUAGAACAACAGAGGAUUGAGCAUCA
# B19: chr3:149686290:149686291:-_ENSG00000070087_ENST00000452853|perfect_dup|motif|central (ssRNA)
# RNA: GGGAGUUCUACAGUCCGACGAUCUCCAAGAGUCAAACCGUUGGUAAAGAAACCUUCCCGGUCUUUUCCUACAAUCAUAUCGGUUUCGGCUGGCGUGAUGCUCUGGAAGACGCCCCCGGCCGUGGCUGCCCAGACGUAUUUGGCCAACAGAGGAUUGAGCAUCA
# B20: chr9:64573397:64573398:-_ENSMUSG00000004771_ENSMUST00000172444|mus_mus|FALSE|FALSE (ssRNA)
# RNA: GGGAGUUCUACAGUCCGACGAUCUUGUAGAAUCUAGAGCAGAUGUCUCAAUGAAUGACAAACCAUUCUUCUCUGUAAAAAGAAACAAAAUUUUCAGUCUGGUAAAUUUUGAUUGCUGUUUAAUAGUGUUGGUGAUUGGUGAUCCAACAGAGGAUUGAGCAUCA
# B21: 49752772_49760201_1578_3pUTR_ENSG00000102531_ENST00000398316|human|control|control (ssRNA)
# RNA: GGGAGUUCUACAGUCCGACGAUCUUUCACUGAAGGCUUUACAGGUAUGCCUGGUUUAUCAGGGCAAGUAGUAAAUUCUACUACUUCACUUGGAUUACUUUUACCUUCUGAGUUGUAAGCAAUAACCUUAAAUUUAUACUUAGUCAACAGAGGAUUGAGCAUCA
# B22: chr6:41756983:41756984:+_ENSG00000214736_ENST00000398881|hu_hu|FALSE|FALSE (ssRNA)
# RNA: GGGAGUUCUACAGUCCGACGAUCGUCAAUGUCACUCAAGUUCCUGGCCAGCCAAACUCCCGCAGCAAAGAGUCCCAAAUUUAGUAUCAAGUUCCUCCGGAAGUCAUUCCUAUCAGUGGCAAAGCGGUAGACGCCCCGAAGCCACAACAGAGGAUUGAGCAUCA
# Molecular target: T1, UNK ZnF1-3 (human, UniProt Q9C0B0 31-174)
# T1 sequence: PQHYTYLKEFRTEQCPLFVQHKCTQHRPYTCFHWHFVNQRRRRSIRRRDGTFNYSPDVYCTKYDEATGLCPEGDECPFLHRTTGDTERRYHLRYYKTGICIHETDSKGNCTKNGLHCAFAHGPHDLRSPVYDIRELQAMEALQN
# Assay: nsRBNS (natural sequence RNA bind-n-seq); RBNS binding buffer (assumed for nsRBNS): 25 mM Tris pH 7.5, 150 mM KCl, 3 mM MgCl2, 0.01% Triton X-100, 500 ug/ml BSA, 20 U/ml SUPERase-In, 4 C; UNK is unkempt and MSI1 is Musashi-1; names of the RNAs are library labels; protein concentration not given here; high values mean tight binding
row,Binder,binding signal [enrichment R]
1,B1,0.648
2,B2,0.754
3,B3,0.658
4,B4,1.24
5,B5,0.886
6,B6,0.722
7,B7,0.535
8,B8,0.976
9,B9,0.524
10,B10,0.539
11,B11,0.53
12,B12,0.836
13,B13,1.54
14,B14,0.654
15,B15,0.531
16,B16,0.932
17,B17,0.592
18,B18,1.73
19,B19,0.88
20,B20,0.821
21,B21,0.768
22,B22,1.63
